Laboratory results: PubChem BioAssay AID504706 (National Center for Advancing Translational Sciences (NCATS), 2011)
In all, about 320,000 compounds went through this assay and about 200 (0.062%) were called active. Inconclusive means that the source gave no clear call. Such entries were picked first, then a sample of the others. Calls come from the whole dose curve; as a rule, active = well fitted activation curve with a large enough effect; inconclusive = small, poorly fitted or top-dose-only effect; inactive = no such curve, though single readings can be large or run the other way. No potency is given beside an inconclusive call; the fits are too rough.

Assay: qHTS assay for re-activators of p53 using a Luc reporter; note: nearly all actives have a fitted effect of over 45% in size
Conditions: H1299 p53-A138V BP100-luciferase reporter, luminescence, 24 h; series mostly up to 92.2 µM
Procedure, shortened: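 p53-null H1299 cells stably carrying temperature-sensitive p53-A138V and a BP100-luciferase reporter were pinned with compounds (4-point, 1:5 series) and held 24 hrs at 37 deg C. Luminescence was read 10 min after detection reagent.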
Potency is the fitted concentration of half-maximal effect; tags give direction and shape of the fitted curve.

Row | SMILES | Potency
1 | Cc1ccc(Sc2cc(Cl)nc(N)n2)cc1 | inconclusive [activator, single point]
2 | COc1ccc(NC(=S)Nc2ccc3nsnc3c2)cc1 | inconclusive [activator, partial curve, poor fit]
3 | O=C(NCCc1ccccc1)/C(=C\c1ccc([N+](=O)[O-])cc1)NC(=O)c1ccco1 | inconclusive [activator, single point]
4 | COc1ccc(C(=O)NC(CC(C)C)C(=O)O)cc1OC (stereo not given) | inactive
5 | Cc1cccc(NC(=O)CN2CCN(C(=O)c3c(C)nn(Cc4ccccc4)c3C)CC2)c1C | inactive
6 | COc1ccc(-c2nc(SCc3ccccc3)n(S(C)(=O)=O)n2)cc1 | inconclusive [activator, partial curve, poor fit]
7 | COc1ccc(/C=C2/C(=O)N(c3ccccc3)N=C2C)cc1OC | inactive
8 | Cc1nnc2sc(-c3ccc(N(C)C)cc3)nn2c1=O | inconclusive [activator, full curve, poor fit]
9 | CCc1ccc(NC(=O)c2cc(C)on2)cc1 | inconclusive [activator, partial curve, poor fit]
10 | CCC(=O)NC(c1ccc(OC)c(OC)c1)c1cc(Cl)c2cccnc2c1O (stereo not given) | inactive
11 | CC(C)c1ccc(-c2csc(NC(=O)c3cccs3)c2C(=O)O)cc1 | inconclusive [activator, single point]
12 | Cc1nnc(NC(=O)c2ccc3ccccc3n2)s1 | inconclusive [activator, full curve, poor fit]
13 | O=C(CSc1ncnc2ccccc12)c1ccc2c(c1)OCCO2 | inconclusive [activator, partial curve, poor fit]
14 | CC(C)(C)C1COc2ccccc2N1C(=O)c1ccccc1Cl (stereo not given) | inactive
15 | CC(=O)N/C(=C/c1ccc2c(c1)OCO2)C(=O)Nc1ccccc1 | inconclusive [activator, partial curve, poor fit]
16 | CCOC(=O)CNc1c(-c2ccccc2)nc2ccc(Cl)cn12 | inactive
17 | Cn1c(SCC(=O)O)nnc1C1CCCCC1 | inconclusive [activator, full curve, poor fit]
18 | CC(=O)Nc1ccc(NS(=O)(=O)c2ccc(C)cc2)cc1[N+](=O)[O-] | inactive
19 | CSc1nnc(C)c(=O)n1COC(=O)COc1ccccc1F | inactive
20 | Cc1ccc(/C=N/Nc2nc3ccccc3s2)o1 | inconclusive [activator, full curve, poor fit]
21 | O=C(NCCc1ccccc1)/C(=N\O)c1ccccc1 | inconclusive [activator, partial curve, poor fit]
22 | CC(=O)N1CCN(c2ccc(NC(=S)NC(=O)/C=C/c3ccccc3)cc2)CC1 | inconclusive [activator, single point]
23 | Cc1ccc2nc(-c3ccc(NC(=O)c4ccco4)cc3)[nH]c2c1 | inconclusive [activator, partial curve, poor fit]
24 | Cc1cc(OCc2nc3ccccc3s2)ccc1N | inconclusive [activator, full curve, poor fit]

Row | SMILES | Potency
25 | CC(C)CC(=O)Nc1ccc(-c2cn3ccsc3n2)cc1 | inconclusive [activator, full curve, poor fit]
26 | C[n+]1cc(-c2ccccc2)oc1-c1ccccc1 | inconclusive [activator, single point]
27 | CC(=O)N1N=C(c2ccc(C)cc2)CC1c1ccc2c(c1)OCO2 (stereo not given) | inactive
28 | c1ccc2c(c1)CCc1c(-c3ccncc3)n[nH]c1-2 | inconclusive [activator, single point]
29 | CNC(=O)COc1ccc(-c2nn(C)c(=O)c3ccccc23)cc1 | inactive
30 | Cc1csc(-c2coc3cc(O)cc(C)c3c2=O)n1 | inconclusive [activator, partial curve]
31 | CC(C)c1cc(C(=O)Nc2cc(Br)ccc2O)no1 | inconclusive [activator, partial curve, poor fit]
32 | Cc1cc(C(=O)OCC(=O)c2ccc(Br)s2)c(C)o1 | inconclusive [activator, single point]
33 | Cc1ccc2nc(NC(=O)c3cccs3)sc2c1 | inconclusive [activator, full curve, poor fit]
34 | CCCCOC(=O)Nc1ccc(C(=O)OC)cc1 | inconclusive [activator, full curve, poor fit]
35 | CCOC(=O)c1c(CSc2ccsc2)n(C)c2cc(Br)c(O)c(CN(C)C)c12 | inactive
36 | COCCNC(=O)c1ccccc1NC(=O)CN(c1ccc2c(c1)OCO2)S(C)(=O)=O | inconclusive [activator, single point]
37 | Cc1ccc(NC(=O)c2ccc(OC(=O)COc3cccc(Cl)c3)cc2)cc1 | inconclusive [activator, full curve, poor fit]
38 | O=c1cc(-c2ccc(O)cc2)oc2ccc(O)cc12 | inconclusive [activator, partial curve, poor fit]
39 | CCCCCCSc1ccc([C@@H]2[C@@H]3C(=O)N(CC)C(=O)[C@@H]3[C@]3(C(=O)OC)CCCCN23)cc1OC | inconclusive [activator, single point]
40 | COc1ccc(NC(=O)C2C(=O)N(CCO)C3(C)CC2c2ccccc2O3)cc1 (stereo not given) | inconclusive [activator, partial curve, poor fit]
41 | O=C(c1ccccc1F)N1CCN(S(=O)(=O)c2ccc3c(c2)OCCO3)CC1 | inactive
42 | CCN1C(=S)SC(=O)C1=C1C=C(C)N(Cc2ccco2)C(C)=C1 | inconclusive [activator, full curve, poor fit]
43 | Cc1ccccc1OCc1nc(-c2ccc(Br)o2)no1 | inconclusive [activator, single point]
44 | O=C(O)c1ccc(CSc2nc3ccccc3[nH]2)cc1 | inconclusive [activator, single point]
45 | CCOCC(=O)Nc1cccc(OC)c1 | inconclusive [activator, partial curve, poor fit]
46 | CCCCCN(C(=O)CCC(=O)OCC(=O)c1ccc(C(C)(C)C)cc1)c1c(N)n(CCCC)c(=O)[nH]c1=O | inactive
47 | O=S(=O)(c1ccc(-c2csc(Nc3ccc(F)cc3)n2)cc1)N1CCCC1 | inactive
48 | COc1ccc(Cl)c2c1[nH]c1nc(SCc3ccccn3)nnc12 | inconclusive [activator, partial curve, poor fit]

Row | SMILES | Potency
49 | N/C(=N\OC(=O)c1cccs1)c1ccccc1 | inconclusive [activator, full curve, poor fit]
50 | O=c1c(Cl)c(Nc2cccc(Cl)c2)cnn1-c1nc2ccccc2s1 | inconclusive [activator, full curve, poor fit]
51 | Nc1ccc(N=Nc2ccccc2)c2cccnc12 | inconclusive [activator, partial curve, poor fit]
52 | COc1cccc(C2=CC(c3ccc(N(C)C)cc3)n3nnnc3N2)c1 (stereo not given) | inconclusive [activator, partial curve, poor fit]
53 | O=C1C(Cc2ccccc2)NC(=S)N1Cc1ccccc1 (stereo not given) | inactive
54 | CC1=C(C(=O)OCc2ccc3c(c2)OCO3)C(c2ccc(O)c([N+](=O)[O-])c2)NC(=O)N1 (stereo not given) | inactive
55 | O=C(CN1CCCCCC1)NCc1ccccc1 | inactive
56 | COc1cccc(NC2SC(=O)N(c3ccccc3)C2=O)c1 (stereo not given) | inconclusive [activator, full curve, poor fit]
57 | Cc1nnc(SCC(=O)Nc2ccccc2)c2ccccc12 | inconclusive [activator, partial curve]
58 | COc1ccc(CCN2C(=NC(=O)CCC(=O)O)SC3CS(=O)(=O)CC32)cc1OC (stereo not given) | inconclusive [activator, single point]
59 | Fc1ccc(NC(=S)Nc2cccnc2)cc1Cl | inactive
60 | O=C(CN1CCN(c2ccccc2O)CC1)Nc1ccccc1C(=O)NCCc1ccccc1 | inconclusive [activator, full curve, poor fit]
61 | Cc1[nH]n(C(N)=S)c(=O)c1N=Nc1ccc(S(=O)(=O)N2CCCC2)cc1 | inconclusive [activator, single point]
62 | COc1ccc(-c2cc(=O)c3cc(OC)ccc3o2)cc1 | inconclusive [activator, full curve, poor fit]
63 | CCOc1cccc(/C=N/N=C/c2cccc(OCC)c2O)c1O | inactive
64 | Cc1ccsc1C(=O)NNC(=O)c1ccccc1F | inconclusive [activator, partial curve, poor fit]
65 | O=C(Cc1csc(NC(=O)Nc2ccc(Cl)cc2)n1)NCc1ccccn1 | inactive
66 | CCCCCSc1nnc(N)s1 | inactive
67 | CCCOc1cccc(-c2cc(C(=O)NNC(=S)NCC)c3ccccc3n2)c1 | inconclusive [activator, full curve, poor fit]
68 | Cc1[nH]c2ccccc2c1/C=N/Nc1nncn1N | inactive
69 | COc1ccc(NC(=O)COC(=O)C2=COCCO2)cc1OC | inconclusive [activator, single point]
70 | CNC(=O)C(=O)NCC1OCCN1S(=O)(=O)c1ccc2c(c1)OCCO2 (stereo not given) | inconclusive [activator, single point]
